Test results taken from PubChem BioAssay AID1508623 (National Center for Advancing Translational Sciences (NCATS), 2021).
In all, about 48,000 compounds went through this assay and about 450 (0.94%) were called active. Not shown: some 19% with an inconclusive outcome. The call rests on the fitted dose curve; in most records, active means well fitted inhibition curve with a large enough effect; inconclusive means small, poorly fitted or top-dose-only effect; inactive means no such curve, though single readings can be large or run the other way. Some of the results follow.

Assay: Primary qHTS for Identification of Small Molecule Inhibitors of Huntingtin Promoter Activity; further: nearly all actives have a fitted effect of over 50% in size
Settings: HEK293 HTT promoter firefly luciferase reporter (activity 0% = vehicle and -100% = no light), 24 h; series mostly up to 57.5 µM; activity change, negative = inhibition: at the top concentration
Method in brief: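 HEK293 Fluc reporter, 2,500 cells/well, 24 h pre-culture; cpds up to 57.5 uM final, 24 h 37 degrees C; Dual-Glo, 10 min RT; normalized vehicle = 0%, zero RLU = -100%.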

Activity change, negative = inhibition, inactive:
COc1ccc(NC(=O)C(NS(=O)(=O)c2cccc3nsnc23)c2ccccc2)cc1 (configuration not stated) -13.7%
CCOc1cc(-c2nnc(SCC(=O)NCCCOC)nc2-c2ccc(OC)c(OCC)c2)ccc1OC -2.51%
CCC(=O)Nc1nnc(S(=O)(=O)N2CCCCCC2)s1 -7.64%
CCCCSc1nnc2c(n1)OC(c1ccc(C)s1)Nc1ccccc1-2 (configuration not stated) 22.4%
Cc1ccc(N2CCN(S(=O)(=O)c3cc(Br)cc4c3N(C(=O)C3CC3)CC4)CC2C)cc1 (configuration not stated) -1.68%
CCS(=O)(=O)N1CC(=O)N(c2ccc(C)c(C)c2)C(C)(C(=O)NC2CCCCCC2)C1 (configuration not stated) 3.7%
CCCN(C(=O)c1cn(CC(C)C)c(=O)c2cc(OC)c(OC)cc12)c1cccc(C)c1 -22.9%
COc1ccc(N2CC(NC(=O)Cc3cccs3)CC2=O)cc1OC (configuration not stated) -5.5%
CCCCOC(=O)c1ccc(NC(=O)/C(C#N)=C/c2ccc(C)o2)cc1 -37.6% [at 11.5 µM]
CCCCNS(=O)(=O)c1ccc2nc(-c3cccnc3)cc(C(=O)NCCCOCC)c2c1 3.12%
Cc1ccc(NC(=O)COCc2cc(-c3cccs3)on2)cc1Cl -7.51%
C[C@H]1c2cccc(O)c2C(O)=C2C(=O)[C@]3(O)C(O)=C(C(N)=O)C(=O)[C@@H](N(C)C)[C@@H]3[C@@H](O)[C@@H]21
CCOc1ccccc1CNC(=O)CCn1cccn1 7.2%
Cc1[nH]c2ccccc2c1C(=O)C(=O)NC1CC(=O)N(c2ccccc2)C1 (configuration not stated) -22.7%
COC(=O)c1ccc(NC(=O)CN(c2cccc(C(F)(F)F)c2)S(C)(=O)=O)cc1 -7.24%
Cc1cccc(-n2c(SCC(=O)Nc3ccccc3C)nc3c(oc4ccccc43)c2=O)c1 -22.8%
CCc1ccccc1N1C(=O)N(C)c2ccccc2S1(=O)=O -21.7%
CCCN(CCC)CCCNC(=O)C1CCN(S(=O)(=O)c2cccc3nsnc23)CC1 -5.01%
CCOc1ccc(S(=O)(=O)N2CCN(c3ccc(C)cc3C)CC2)c2ccccc12 -14.9%
CCCCCCCCCCCCCCCCO -4.88%
O=C1COc2ccc(-c3cc(-c4ccc(F)cc4)c4c(n3)-c3ccccc3OC4)cc2N1 -9.47%
CCN(C(=O)c1ccc2c(=O)n3c(nc2c1)CCCCC3)c1cc(C)ccc1C -19.6%
CCCOc1cccc(C2c3c(oc4cc(C)c(C)cc4c3=O)C(=O)N2CCCN2CCOCC2)c1 (configuration not stated) -17.2%
CCC(=O)N1CCc2cc(S(=O)(=O)NC(C(=O)NCCc3ccc(C)cc3)C(C)C)ccc21 (configuration not stated) -12.1%
Cc1ccc(C)c(C(=O)CSc2nc3cc(C(=O)NC4CCCC4)ccc3c(=O)n2CC2CCCO2)c1 (configuration not stated) -5.46%
COCc1cc(C)n(CC(=O)Nc2cccc(C(C)=O)c2)c(=O)c1C#N -0.476%
Cc1ccc(-c2nc3cc(NC(=O)c4cc(Br)ccc4Cl)ccc3o2)cc1 18.6%
CCOc1ccccc1C(=O)N1CCCCC1CCN1CCOCC1 (configuration not stated) 2.45%
CC(C)CCNC(=O)c1ccc2c(c1)N(C)C(=O)c1ccccc1S2 -18%
CC(C)c1nn2c(=O)cc(COC(=O)c3ccccc3Cl)nc2s1 24.7%
COc1ccc(N2CCN(Cc3nc(-c4ccc(C)cc4)no3)CC2)cc1 -24.3%
CCOc1cc2[nH]c(=O)n(CCCCCC(=O)NC(C)CC)c(=O)c2cc1OCC (configuration not stated) -7.07%
CCC(Cc1ccccc1)NC(=O)Cn1ncc2c3ccccc3n(Cc3ccc(F)cc3)c2c1=O (configuration not stated) -22.9%
O=C(O)CCn1ccc2cc(S(=O)(=O)N3CCCCC3)ccc21 -30.1%
O=C(NCc1ccccc1Cl)C1CCN(c2ncnc3c2nc2n3CCCCC2)CC1 -5.56%
COc1ccc2nc3cc(Cl)ccc3c(Nc3cc(CN4CCCC4)c(O)c(CN4CCCC4)c3)c2n1 8.81%
COc1ccc(-c2csc(-c3c(N)c(C(=O)c4ccccc4)n4ccccc34)n2)cc1 2.36%
Cc1nnc(NC(=O)CSCc2cc(=O)c3ccc(C)c(C)c3[nH]2)s1 -2.99%
Cc1ccc(-n2nc3c(N4CCC(C(=O)NCCC(C)C)CC4)nnc(C)c3c2C)cc1 -24.5%
Cc1ccc2oc(=O)c3cc(C(=O)Nc4cccc(C#N)c4)sc3c2c1 -11.1%
CCC(=O)N1c2ccccc2CC1C(=O)NCCc1ccc(Cl)cc1 (configuration not stated) -10.9%
O=C(Cn1nnnc1-c1ccccc1F)Nc1ccc(F)c(F)c1 -7.04%
Cc1cc(C)cc(-n2ccnc2SCC(=O)Nc2ccc(C)c(Cl)c2)c1 -14.1%
CCOc1ccccc1NC(=O)c1nnn(CC(=O)Nc2ccccc2CC)c1N 9.18%
COc1ccc(NC(=O)c2[nH]nc3c2CSc2ccccc2-3)c(OC)c1 0.987%
COc1ccc(-n2c3c(cc(-c4nc(-c5ccc(Cl)cc5)cs4)c2=O)C(=O)CC(C)(C)C3)cc1 -2.49%
Cc1ccc2scc(N3CCN(c4ccc(F)cc4)CC3)c(=O)c2c1 -12.1%
COc1ccc(NC(=O)c2sc3nc4n(c(=O)c3c2C)CCC4)cc1Cl 32.5%
O=C(NCc1ccc(Cl)cc1)c1cnc2sc(N3CCCC3)nn2c1=O 4.64%
CCOc1ccc(C(c2c(O)cc(C)n(CCOC)c2=O)N2CCC(C)CC2)cc1 (configuration not stated) -9.94%
COc1ccc(Cl)cc1NC(=O)CN(c1cccc(C)c1C)S(=O)(=O)c1ccccc1 -34.4%
O=C(CC1N=C2c3ccccc3N=C(SCc3ccccc3F)N2C1=O)NCc1ccc2c(c1)OCO2 (configuration not stated) -0.325%
COc1ccc2c(c1)sc1ncc(C(=O)NCc3cccc(Cl)c3)c(=O)n12 2.33%
COc1cc(C)ccc1OCCn1c(-c2ccc(Cl)cc2)nc2ccccc2c1=O 1.1%
Cc1ccc(N(C)S(=O)(=O)c2nnc(NC(=O)C3CCCCC3)s2)cc1 10.7%
CCc1ccc(CNC(=O)c2cc(-c3ccc(Cl)s3)nc3ccccc23)cc1 0.527%
Cc1ccc(CCNC(=O)c2ccc(CSCc3ccccc3Cl)o2)cc1 -23.1%
O=C(Cc1ccc(NC(=O)N2CCSc3ncccc32)cc1)NCCc1ccccc1 -30.7%
CCOC(=O)N1CCc2c(sc3c2c(=O)n(-c2ccc(CC)cc2)c(=O)n3CC(=O)Nc2ccc(C)cc2)C1 -6.26%
CCNc1ccc(-c2nc(-c3ccco3)no2)cc1[N+](=O)[O-] 63.5%
Cc1ccccc1NC(=O)c1c(NC(=O)Cc2ccccc2)sc2c1CCC2 -12.4%
CCOc1ccc(CNC(=O)c2ccc3c(c2)c(C)c(C)n3Cc2ccc(Cl)cc2)cc1 -26.9%
